Laboratory results published in PubChem BioAssay AID1347428 (National Center for Advancing Translational Sciences (NCATS), 2020).
The whole screen tested about 91,000 compounds, of which about 290 (0.32%) were called active. Entries that show only a call come without a potency. This list was built around the results that the source calls inconclusive (neither active nor inactive); the mix of calls is not that of the screen. Calls come from the whole dose curve; as a rule, active = well fitted inhibition curve with a large enough effect; inconclusive = small, poorly fitted or top-dose-only effect; inactive = no such curve, though single readings can be large or run the other way. Potencies of inconclusive entries are doubtful fits and often do not repeat.

Target: Single-stranded DNA cytosine deaminase (Homo sapiens) (UniProt Q9GZX7)
UniProt Q9GZX7, sequence (Q9GZX7 whole entry, looked up): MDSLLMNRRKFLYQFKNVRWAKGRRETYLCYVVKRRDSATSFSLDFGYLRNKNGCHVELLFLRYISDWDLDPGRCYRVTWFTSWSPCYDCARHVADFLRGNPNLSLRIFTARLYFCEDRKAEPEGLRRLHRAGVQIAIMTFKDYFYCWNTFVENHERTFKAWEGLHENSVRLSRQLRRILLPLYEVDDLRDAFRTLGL
Assay: Primary qHTS assay for inhibitors of Activation Induced Cytidine Deaminase (AID): AID signal; note: nearly all actives have a fitted effect of over 25% in size
Details: AID deamination FRET fluorescence, UDG-coupled, 4 h; series mostly up to 115 µM
Source text: Assay Provider (PI) Patricia Gearhart Ph.D.
National Institute on Aging
National Institute of Health (NIH), Bethesda, MD
Assay Provider (PI) Rahul Kohli Ph.D.
Perelman School of Medicine
University of Pennsylvania, Philadelphia, PA
Activation-Induced Deaminase (AID) is a cytosine deaminase which converts cytosine into uracil within stretches of ssDNA. The presence of uracil in DNA initiates a cascade of mutagenic DNA repair to introduce point mutations and DNA double strand breaks. Specific targeting of AID to the immunoglobulin heavy chain loci (Igh) promotes mutagenesis in the antibody variable region for somatic hypermutation (SHM) or switch regions leading to class switch recombination (CSR). However, AID also plays a role in accumulating unnecessary mutations across the genome. Mis-targeting of AID results in the initiation of tumor development and leads to greater drug resistance among cancer cells when continually expressed. To identify an AID inhibitor, a small molecule library will be screened in collaboration with NCATS core facility at NIH. To confirm biological function, inhibitors will be examined in an in vitro murine B-cell activation assay and subsequent secondary validation screens. Top molecules will be further screened to identify inhibitory efficacy against a wild type primary splenocytes assay. Using these approaches, we hope to identify a small molecule with great efficacy and low toxicity for use as a molecular probe to further characterize AID's intricacies, or even as a therapeutic.
A FRET based analysis of cytosine deamination, was developed to identify potential inhibitors of AID catalytic activity. This screen has two signal output, Read 1 evaluates the AID inhibition response. The second readout (Read 2) evaluates UDG response and is uses as a counterscreen to exclude false positive inhibitors. Inhibition in AID and inactivity in the UDG signal is the desired outcome for this assay.
SEQUENCE No. (e.g., 1, 2, 3, etc.); […] (e.g., Cells, Incubation, Reagent, etc.); VALUE; DESCRIPTION
1a; Reagent; 3 uL; [4/3x] 1 uM AID/2.67 U/mL UDG
1b; Reagent; 3 uL; 2 U/mL UDG
1c; Reagent; 3 uL; 1 uM AID
2a; Compound; 46 nL; Follow-up plates (0.64 uM - 10 mM)
2b; Control; 46 nL; ATA ([…] - 10 mM)
3; Time; 10 min; incubation at room temperature
5; Time; 4 hr; incubation at room temperature
6; Reagent; 4 uL; [2x] 250 mM NaOH
7; Time; 15 sec; centrifuge at 1000 rpm
8; Time; 30 min; incubation at room temperature
9a; Detection; fluorescence (Read 1: AID); EnVision (PerkinElmer) plate reader, 540 excitation and 590 emission filters
9b; Detection; fluorescence (Read 2: UDG); EnVision (PerkinElmer) plate reader, 560 excitation and 665 emission filters
NOTES (numbers refer to sequence above)
1a; Reagents were dispensed in a medium-binding black solid-bottom Greiner plates (789176F) using a BioRptr liquid dispenser. Dispense 3 uL of [4/3x] 1 uM AID (provided by Kohli lab) and [4/3x] 2 U/mL UDG (NEB M0280L) into columns 1, 2, 5 to 48.
1b; Dispense 3 uL of [4/3x] 2 U/mL UDG into column 3.
1c; Dispense 3 uL of [4/3x] 1 uM AID into column 4.
2a; Compound (7-points [uM] (0.64; 3.2; 16; 80; 400; 2,000; 10,000; 20,000) double pin-transferred (Dip Factor = 2) using the Kalypsys (Wako USA) pintool equipped with a 1536 pinhead for a final concentration range of 7.32 nM - 114 uM.
2b; 10 mM Aurintricarboxylic Acid (Sigma A1895) (ATA, 8-point, n = 2, 1:2.5 dilution in column 2) double pin-transferred (Dip Factor = 2) using the Kalypsys (Wako USA) pintool equipped with a 1536 pinhead for a [final] range of 186 nM - 114 uM.
3; Room temperature incubation.
4; Dispense 1 uL of substrate mixture from the Kohli lab [4x] […] DJC20 and [4x] 250 nM DJC23 into columns 1 to 48 .
5; Room temperature incubation.
6; Dispense 4 uL of substrate mixture [2x] 250 mM NaOH into columns 1 to 48.
7; Centrifugation step to remove bubbles.
8; Room temperature incubation
9a; Fluorescence signal (column label AID) was read using the EnVision plate reader. […]
Potency is the fitted concentration of half-maximal effect; tags give direction and shape of the fitted curve.

Compound	Potency
O=C(Cc1n[nH]c(=O)c2ccccc12)N1CCN(CC(F)(F)F)CC1	inactive
O=C(Nc1ccccc1)N(Cc1ccc2c(c1)OCO2)C1CCN(Cc2ccccc2)CC1	inconclusive: 39.8 µM [inhibitor, single point]
O=C(Nc1ccc(F)c(Cl)c1)N(Cc1ccc2c(c1)OCO2)C1CCN(Cc2ccccc2)CC1	inconclusive: 25.1 µM [inhibitor, full curve, poor fit]
COc1cc(-c2c(C#N)c(N)nc3c2c(=O)nc2sccn23)ccc1OCc1ccccc1F	inconclusive: 44.7 µM [inhibitor, partial curve, poor fit]
COc1ccc(CN2CCN(C(=O)COc3ccc4ccccc4c3)CC2)cc1	inactive
Cc1ccc(-c2nc(CN3C(=O)CN=C(c4ccccc4Cl)c4cc(Cl)ccc43)c(C)o2)cc1	inconclusive: 44.7 µM [inhibitor, partial curve, poor fit]
O=C(O)c1cc(I)cc(I)c1I	inactive
Cc1nn(-c2ccccc2)c2c1C(c1cnn(C)c1C)SCC(=O)N2 (stereo not drawn)	inactive
Cc1ccccc1-c1nc(CN2C(=O)CN=C(c3ccccc3)c3ccccc32)c(C)o1	inconclusive: 8.91 µM [inhibitor, full curve, poor fit]
CC(C)N1CCN(Cc2c[nH]c3ccccc23)CC1	inactive
O=Cc1cccc2ccccc12	inconclusive: 100 µM [inhibitor, single point]
Cc1cc(C)cc(N2C(=O)NC(=O)C3(Cc4cc(C)ccc4N(C)C3)C2=O)c1 (stereo not drawn)	inactive
CC12CNCC(C)(CNC1)C2=O	inconclusive: 50.1 µM [inhibitor, partial curve, poor fit]
Cc1ccc(/C=C/c2nc3ccccc3c(=O)n2-c2ccccc2)s1	inactive
COC1CC(OC2CCC3(C=O)[C@H]4CCC5(C)C(C6=CC(=O)OC6)CCC5(O)[C@@H]4CCC3(O)C2)OC(C)C1O (stereo partly drawn)	inactive
COc1ccc2[nH]c(C)c(CCNCCC3=C(C)CCCC3(C)C)c2c1	inactive
Cc1cc(C)cc(NC(=O)CN2C(=O)CN=C(c3ccccc3)c3cc(Cl)ccc32)c1	inconclusive: 89.1 µM [inhibitor, partial curve, poor fit]
Cc1ccccc1-c1nn2c(=O)cc(CN3CCN(C(=O)COc4ccccc4Cl)CC3)nc2s1	inconclusive: 79.4 µM [inhibitor, partial curve, poor fit]
C#CCN1CCN(Cc2ccc(OC)c(OC)c2)CC1	inactive
COc1ccc(CNCCc2cccc(F)c2)cc1	inactive
Cc1cc(NC(=O)c2cccn(Cc3cccc(Cl)c3)c2=O)no1	inconclusive: 56.2 µM [inhibitor, partial curve, poor fit]
O=S1(=O)N(Cc2ccccc2)CCCN1Cc1cccc(Cl)c1	inconclusive: 17.8 µM [inhibitor, full curve]
CCc1ccc(NC(=O)c2cccn(Cc3cccc([N+](=O)[O-])c3)c2=O)cc1	inconclusive: 8.91 µM [inhibitor, partial curve, poor fit]
Oc1ccc2c3c1O[C@H]1c4oc5ccccc5c4C[C@@]4(O)C(C2)N(CC2CC2)CCC314 (stereo partly drawn)	inconclusive: 63.1 µM [inhibitor, partial curve, poor fit]
O=C(O)CCS(=O)(=O)C(Cl)Cl	inactive
O=c1c2ccccc2nc(/C=C/c2cccc3ccccc23)n1-c1ccccc1Cl	inconclusive: 28.2 µM [inhibitor, full curve, poor fit]

Compound	Potency
COc1ccc(CCNCc2ccc(Br)cc2)cc1	inactive
Cc1cc(-n2c(/C=C/c3ccc(Br)s3)nc3ccccc3c2=O)ccc1Br	inconclusive: 70.8 µM [inhibitor, single point]
Cc1c(C(c2ccc(Cl)cc2Cl)c2c(O)c3ccccc3oc2=O)c(=O)n(-c2ccccc2)n1C (stereo not drawn)	inconclusive: 89.1 µM [inhibitor, partial curve, poor fit]
CCN(CCCl)Cc1ccccc1Br	inconclusive: 50.1 µM [inhibitor, partial curve, poor fit]
c1ccc(CCNCc2ccc3[nH]ccc3c2)cc1	inactive
Cc1ccccc1CN1C(=O)CN=C(c2ccccc2)c2cc(Cl)ccc21	inconclusive: 50.1 µM [inhibitor, partial curve, poor fit]
COc1ccc(C(CN(C)C)C2(O)CCCCC2)cc1 (stereo not drawn)	inactive
N#Cc1ccc(Cn2cc(C(=O)C3CC3)c3ccccc32)cc1	inactive
Cc1ccc(NC(=O)N(Cc2ccc3c(c2)OCO3)C2CCN(Cc3ccccc3)CC2)cc1F	inconclusive: 89.1 µM [inhibitor, partial curve, poor fit]
Cc1cccc(OCCNc2ccc([N+](=O)[O-])c3cccnc23)c1	inactive
CN(C)C(CSS(=O)(=O)c1ccccc1)CSS(=O)(=O)c1ccccc1	inconclusive: 20 µM [inhibitor, full curve, poor fit]
N#C/C(=C\c1ccccc1)C(=O)Nc1ccc(Cl)cc1C(=O)c1ccccc1	inactive
C=CCN1CCN(C(=O)Cc2ccc(F)cc2)CC1	inactive
COc1ccc(OC)c(NC(=O)Cn2cc(C(=O)c3ccccc3F)c3ccccc32)c1	inconclusive: 70.8 µM [inhibitor, single point]
N#CCCNCc1cccnc1	inactive
O=c1[nH]c2ccccc2n1C1CCN(CCCC(c2ccc(F)cc2)c2ccc(F)cc2)CC1	inconclusive: 56.2 µM [inhibitor, partial curve, poor fit]
Cc1ccc(-n2c(/C=C/c3ccc(Br)s3)nc3ccccc3c2=O)cc1C	inconclusive: 44.7 µM [inhibitor, partial curve, poor fit]
CC(=O)C1=C(C)OC(N)=C(C(=O)OCc2ccccc2)C12C(=O)Nc1ccccc12 (stereo not drawn)	inactive
COc1ccc2c(c1)c(C(=O)OC(C)C(=O)NC(C)(C)C)c(C)n2C1CC1 (stereo not drawn)	inactive
Cc1nnc(NC(=O)c2cccn(Cc3ccc(Cl)cc3)c2=O)s1	inconclusive: 79.4 µM [inhibitor, single point]
CCOC(=O)C1=C(N)OC(C)=C(C(C)=O)C12C(=O)Nc1ccccc12 (stereo not drawn)	inactive
CCCSc1nc2ccccc2c(=O)n1-c1ccccc1OC	inconclusive: 79.4 µM [inhibitor, partial curve, poor fit]
Cc1c(C(c2ccc(F)cc2)c2c(O)c3ccccc3oc2=O)c(=O)n(-c2ccccc2)n1C (stereo not drawn)	inactive
C1NC2CC3CC1CC(C3)C2	inactive
Cc1oc2cc(OCC(=O)N3CCN(C)CC3)ccc2c(=O)c1Oc1ccccc1	inactive
Cc1oc(-c2ccc(Cl)cc2)nc1CN1C(=O)CN=C(c2ccccc2)c2ccccc21	inconclusive: 50.1 µM [inhibitor, partial curve, poor fit]

Compound	Potency
O=S1(=O)N(CCN2CC=C(c3c[nH]c4cc(F)ccc34)CC2)c2cccc3c2N1CCC3	inconclusive: 70.8 µM [inhibitor, partial curve, poor fit]
CC(=O)OC1(C)CCC2C3CCC4CC(=O)CCC4(C)C3CCC21C (stereo not drawn)	inactive
N#CCCNC(=O)CCl	inactive
C/C(=C\c1cn(C)c2ccccc12)[N+](=O)[O-]	inactive
CCC(CC)NC1CC1	inactive
O=C(Nc1cc(C(F)(F)F)cc(C(F)(F)F)c1)c1cccn(Cc2ccccc2Cl)c1=O	inconclusive: 100 µM [inhibitor, partial curve, poor fit]
O=C1CN=C(c2ccccc2Cl)c2cc(Cl)ccc2N1Cc1cccc(Cl)c1	inconclusive: 28.2 µM [inhibitor, single point]
CN(C)CCNc1ccc([N+](=O)[O-])c2cccnc12	inactive
OC(CN(Cc1ccccc1)Cc1ccccc1)c1ccc2cc[nH]c2c1 (stereo not drawn)	inactive
CCOC(=O)c1c(C)n(C2CCCC2)c2ccc(O)cc12	inactive
C/C(O)=C(\C#N)C(=O)Nc1cc(Br)ccc1Br	inconclusive: 39.8 µM [inhibitor, full curve, poor fit]
Cc1ccc(CN2C(=O)c3ccccc3Sc3ccc(C(=O)N4CCC5(CC4)OCCO5)cc32)cc1	inconclusive: 56.2 µM [inhibitor, partial curve, poor fit]
COCCNC(=O)Cn1cc(C(=O)c2ccccc2)c2ccccc21	inactive
CCCCC/C=C\C/C=C\C/C=C\C/C=C\CCCC(=O)NCC(=O)O	active: 79.4 µM
CC(C(=O)c1c[nH]c2ccccc12)N(Cc1ccc(F)cc1)C1CC1 (stereo not drawn)	inactive
CCn1cc(C(=O)NC2CCC(C)CC2)c2ccccc21 (stereo not drawn)	inactive
CC(=O)c1c(O)c(C)c(O)c(Cc2c(O)c3c(c(C(=O)/C=C/c4ccccc4)c2O)OC(C)(C)C=C3)c1O	active: 28.2 µM
CCOc1ccccc1CN1CCN(c2ccccc2)CC1	inactive
COc1ccc2[nH]c(C)c(CCNCC(C)(C)C)c2c1	inactive
Cc1ccc(-n2c(/C=C\c3ccc(F)cc3)nc3ccccc3c2=O)cc1Cl	inconclusive: 3.16 µM [inhibitor, full curve, poor fit]
Cc1cccc(-c2nc(CN3C(=O)CN=C(c4ccccc4)c4ccccc43)c(C)o2)c1	inconclusive: 56.2 µM [inhibitor, partial curve, poor fit]
Cc1ccc(CN(CCc2ccccc2)Cc2ccccc2)o1	inactive
Cc1ccc2c(CCN)c(C)[nH]c2c1C	inactive
Cc1cc(C)c(NC(=O)c2cn(Cc3ccccc3)nn2)c(C)c1	inactive
Ic1ccc(CN2CCNCC2)cc1	inactive
Cc1ccc2c(c1)C(SCC(=O)Nc1ccccc1C(=O)O)c1ccccc1O2 (stereo not drawn)	inactive
